About 2,200 (0.71%) of roughly 310,000 compounds showed an effect of 50% or more. Effects have a minus sign here. This is one part of the list.
target: human ether-à-go-go-related gene (hERG) potassium channel (human, UniProt Q12809); assay: primary screen, population patch clamp on CHO cells stably expressing hERG
Sequence (Q12809 whole entry, looked up): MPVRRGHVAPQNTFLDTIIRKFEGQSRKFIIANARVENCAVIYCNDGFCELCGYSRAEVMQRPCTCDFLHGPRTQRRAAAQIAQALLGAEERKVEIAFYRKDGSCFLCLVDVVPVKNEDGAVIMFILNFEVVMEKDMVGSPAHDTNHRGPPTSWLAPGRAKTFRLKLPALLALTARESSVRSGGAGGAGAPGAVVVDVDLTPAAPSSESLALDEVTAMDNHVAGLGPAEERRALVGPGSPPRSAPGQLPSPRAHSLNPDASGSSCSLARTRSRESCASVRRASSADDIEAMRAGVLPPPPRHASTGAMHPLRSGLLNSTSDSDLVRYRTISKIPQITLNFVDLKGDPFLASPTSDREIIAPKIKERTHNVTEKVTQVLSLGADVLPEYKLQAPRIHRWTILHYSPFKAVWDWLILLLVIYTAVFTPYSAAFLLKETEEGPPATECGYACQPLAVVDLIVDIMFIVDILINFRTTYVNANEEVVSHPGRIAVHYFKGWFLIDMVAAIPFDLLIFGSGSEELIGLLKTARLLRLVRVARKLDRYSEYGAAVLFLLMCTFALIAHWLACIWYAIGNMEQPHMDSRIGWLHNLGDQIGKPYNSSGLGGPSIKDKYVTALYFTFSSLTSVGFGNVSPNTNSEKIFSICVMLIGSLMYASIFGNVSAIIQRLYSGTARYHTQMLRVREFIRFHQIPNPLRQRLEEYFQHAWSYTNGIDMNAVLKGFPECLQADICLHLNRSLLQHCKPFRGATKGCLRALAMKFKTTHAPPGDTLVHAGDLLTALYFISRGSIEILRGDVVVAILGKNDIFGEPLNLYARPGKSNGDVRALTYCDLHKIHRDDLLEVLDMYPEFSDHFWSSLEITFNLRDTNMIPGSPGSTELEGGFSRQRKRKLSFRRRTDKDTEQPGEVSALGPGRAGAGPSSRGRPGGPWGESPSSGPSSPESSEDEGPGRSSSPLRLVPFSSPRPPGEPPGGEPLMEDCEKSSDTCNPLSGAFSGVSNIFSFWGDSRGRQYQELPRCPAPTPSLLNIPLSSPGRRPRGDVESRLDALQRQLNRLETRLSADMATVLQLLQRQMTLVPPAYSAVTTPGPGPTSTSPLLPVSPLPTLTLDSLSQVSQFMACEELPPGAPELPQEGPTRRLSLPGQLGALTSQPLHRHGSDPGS

Compound | hERG current change (%, negative = inhibition) at 1uM
O=C(COc1nncc2ccccc12)NCC(F)(F)F | 15.6%
Cc1cccc(/C=N/NC(=O)c2ccc(NC(=O)c3ccc(F)cc3)cc2)n1 | 9.8%
Cn1nc(C(=O)OCc2ccc(Br)cc2F)c2ccccc2c1=O | 12%
COC(=O)c1c(C)oc(C)c1S(=O)(=O)NC(c1ccccc1)c1ccccc1 | 17.8%
O=C(COC(=O)CSCC(=O)N1CCCCC1)NCc1ccc(F)cc1 | 11.2%
COCCNC(=O)C(c1ccc(OC)cc1)N(CCOC)C(=O)CCC(=O)Nc1nccs1 (centres unmarked) | 10.2%
CCOc1ccc2c(c1)C(c1ccccc1)=NNC(c1ccccc1)=N2 | 10.5%
O=C(COC(=O)/C=C/c1ccc2c(c1)OCO2)Nc1ccccc1 | 26%
COc1ccc(-c2csc(NC(=O)CSc3nc(SC)ns3)n2)cc1 | 12.7%
CCC(=O)Nc1nc(=S)ss1 | 6.62%
CC1CCN(c2nc3c(c(=O)n(C)c(=O)n3C)n2CCSc2ncccn2)CC1 | 6.07%
Cc1ccc(C(=O)N(Cc2sccc2C)C2CCS(=O)(=O)C2)cc1 (centres unmarked) | 6.55%
C=CCc1ccc(O)c(-c2ccc(O)c(CC=C)c2)c1 | 2.28%
Cc1ccc([N+](=O)[O-])cc1NC(=O)c1ccc(CSc2ccccc2)cc1 | 9.94%
CCC(=O)c1ccc(OCC(=O)N2CCc3cc(OC)c(OC)cc3C2)cc1 | -3.59%
COC(=O)c1ccc(C2C(C(=O)c3cc4ccccc4o3)=C(O)C(=O)N2CCCN(C)C)cc1 (centres unmarked) | 13.7%
COc1ccc(-c2[nH]c(-c3ccccc3)nc2SCC(=O)NCc2ccco2)cc1OC | 4.09%
Cc1ccc(CC(CC(=O)Nc2cccc(C(F)(F)F)c2)C(=O)O)cc1 (centres unmarked) | 17.1%
COc1ccc(C2OC(=O)CC2C(=O)NCc2ccc(C)cc2)cc1OC (centres unmarked) | -17%
CNS(=O)(=O)c1ccc2nc(NC(=O)c3ccc(N4C(=O)CCC4=O)cc3)sc2c1 | 0.228%
CCCc1ccc(OCc2ccccc2)c2c(=O)cc(C(=O)OCC)oc12 | 14.4%
CC(C)CC(=O)Nc1ccc(F)c(Cl)c1 | -9.41%
OCc1c[nH]c2ccccc12 | 8.87%

Compound | hERG current change (%, negative = inhibition) at 1uM
COc1cc(NS(=O)(=O)c2ccc(NC(C)=O)cc2)nc(OC)n1 | 8.07%
Nc1c(S(=O)(=O)c2cccs2)c2nc3ccccc3nc2n1Cc1ccccc1 | -0.921%
CCOC(=O)NC(=O)CSc1nnc(C2CC2)n1Cc1ccco1 | 15.7%
COCCn1c(-c2ccc(C#N)cc2)nc2c1c(=O)[nH]c(=O)n2Cc1ccccc1 | -1.59%
COc1ccccc1CNc1cc(C)ccc1C | 8.16%
Cc1cc(CSc2ccccc2)ccc1NC(=O)c1ccc(CN2CCOCC2)cc1 | 11%
Cc1cc(C)c(N(C(=O)CN2C(=O)c3ccccc3S2(=O)=O)C(C(=O)NCC2CCCO2)c2ccc(F)cc2)c(C)c1 (centres unmarked) | 8.04%
Cc1ccccc1NC(=O)COC(=O)c1cccnc1 | 1.07%
CCOc1ccc(S(=O)(=O)N2CCCCC2)cc1NC(=O)Cc1ccccc1 | -6.82%
COc1ccc(CCNC(=O)CN(C)S(=O)(=O)c2cccs2)cc1OC | 5.76%
CC1(c2ccc3c(c2)OCO3)NC(=O)N(CC(=O)NCCC2=CCCCC2)C1=O (centres unmarked) | 4.2%
COc1ccc(C(=O)N2CCN=C2SCc2cccnc2)c(OC)c1 | -1.04%
N#Cc1ccsc1NC(=O)c1ccccn1 | 6.27%
O=C(NCc1ccccc1Cl)C1CCN(S(=O)(=O)c2cccs2)CC1 | -32%
O=C(CNC(=O)c1ccccc1)OCCOc1cccc(Cl)c1 | 1.87%
O=C(Nc1cccc(F)c1)C1CCCN1S(=O)(=O)c1cccc2cccnc12 (centres unmarked) | -1.05%
COc1cc(NC2c3ncccc3C(=O)N2Cc2ccco2)cc(OC)c1 (centres unmarked) | 3%
CC(C(=O)Nc1cccnc1)c1ccc([N+](=O)[O-])cc1 (centres unmarked) | -0.0094%
Cc1nc(NCCc2ccccc2)sc1C(=O)O | 21.2%
COc1ccccc1NC(=O)CSc1nnc(CNC(=O)c2ccccc2F)o1 | 13.6%
O=C(NNC(=O)c1ccc(-n2cncn2)c([N+](=O)[O-])c1)c1ccc(Cl)cc1 | 12.9%
Cc1ccc(CCNC(=O)C2CCN(S(=O)(=O)c3ccc4c(c3)oc(=O)n4C)CC2)cc1 | 16%
CCN(CC)CCOC(=O)c1ccc(NC(=O)CNC(=O)c2ccccc2)cc1.Cl | 15.7%

Compound | hERG current change (%, negative = inhibition) at 1uM
CCOC(=O)N1CCN(c2c(N3CCN(c4ccc(F)cc4)CC3)c(=O)c2=O)CC1 | -44.3%
CC(SCC(=O)Nc1ccc(F)cc1)c1nc2ccccc2c(=O)[nH]1 (centres unmarked) | 16.2%
Cc1cc2nc(CCN(C(=S)NCC(C)C)C3CCCC3)[nH]c2cc1C | -6.3%
CCOC(=O)Cc1c(Cl)c2ccccc2[nH]c1=O | 7.69%
O=C(O/N=C(\c1ccccc1)c1ccccn1)c1ccc(Cl)c(Cl)c1 | 12.9%
Cc1ccc(NC(=O)CC(=O)Nc2ccc(C)cc2C)c(C)c1 | 15.6%
CCN(CC)CCNC(=O)c1cc2c(s1)-c1ccccc1SC2 | -34.1%
CCOC(=O)C1(CCOC)CCN(C(C)CCc2ccc(OC)cc2)CC1 (centres unmarked) | -43%
COc1cc(NC(=O)c2cccs2)c(C(=O)OCC(=O)NC(=O)NC(C)(C)C)cc1OC | 6.34%
O=C(c1nnc(Cc2ccc(Cl)cc2)o1)N1CCOCC1 | 10.8%
Cc1nc(-c2ccc(C(F)(F)F)cc2)sc1C(=O)NN | 13.3%
CC(C)(C)OC(=O)N1CCC(CC2CC(c3ccncc3)=NO2)(C(=O)O)CC1 (centres unmarked) | 11.5%
CN(Cc1nc2ccccc2c(=O)[nH]1)C(=O)c1cccc(S(=O)(=O)N2CCCC2)c1 | 2.66%
Nc1ccc(-c2nc3c(Cl)cc(N)cc3[nH]2)cc1 | 15.6%
COc1cccc(OC)c1NC(=O)Cn1nc(-c2ccc3c(c2)OCCO3)ccc1=O | 6.74%
COc1ccccc1-c1c(C)oc2c(CN3CCOCC3)c(O)ccc2c1=O | -1.31%
CC(=O)NC(c1ccc(F)cc1)c1cccnc1 (centres unmarked) | 3.81%
CCCCN1C(=O)C(=O)N(CC(=O)N2CCc3ccccc32)C1=O | 5.83%
CCNC(=O)COC(=O)/C=C/c1cccs1 | 14.5%
CCOC(=O)c1cnc(SC2CC(=O)N(c3ccc(C)cc3)C2=O)nc1N (centres unmarked) | 5.72%
O=C(N/N=C\CCc1ccccc1)c1ccco1 | 9.12%
Cc1cc2nc(C)n3c4ccccc4nc3n2n1 | 4.71%
CN(C)/C=C1\C(=O)N(c2ccc(Cl)cc2)CS1(=O)=O | 3.01%

Compound | hERG current change (%, negative = inhibition) at 1uM
COc1ccc(/C(N)=N/OC(=O)c2cccc([N+](=O)[O-])c2C)cc1OC | 9.53%
CCCCCOc1ccc(C(=O)OC(C)C(=O)NCc2ccco2)cc1 (centres unmarked) | -5.69%
CC(C)c1ccc(Nc2nnc(SCC(=O)c3nnc(-c4ccccc4)o3)s2)cc1 | 22.3%
CCS(=O)(=O)c1ccc2c(c1)N(S(=O)(=O)c1ccc(C)cc1)CC(C(=O)O)O2 (centres unmarked) | 15.8%
CC(=O)c1c(C)n(-c2ccc(C)cc2C)c2ccc(O)cc12 | 12.4%
CSc1ccc(CN(C)C(C)C(=O)NCc2ccccc2)cc1 (centres unmarked) | 23%
CC(C)CC(=O)Nc1sc2c(c1C(=O)O)CCCCC2 | 15.5%
CSc1cccc(NC(=O)CN(C)S(=O)(=O)c2ccc(F)cc2)c1 | -10.6%
COc1ccc(CC(=O)Nc2nc3n(n2)C(c2ccccc2)CC(=O)N3)cc1OC (centres unmarked) | 9.07%
O=C1NC2(CCCCCC2)C(=O)N1Cc1c(F)cccc1Cl | 7.36%
CCCCN(C)Cc1c(C)[nH]c2c(Cl)cccc2c1=O | -11.3%
O=C(Nc1nnc(SCc2cccc3ccccc23)s1)C1COc2ccccc2O1 (centres unmarked) | 6.72%
O=C(c1ccc(OC2CCN(Cc3ccccc3O)CC2)cc1)N1CCCCC1 | 12.6%
c1coc(C2Nc3ccccc3C3OCCC23)c1 (centres unmarked) | 9.46%
CCN(CC)CCn1c2c(c(SCC(=O)Nc3cccc4ccccc34)nc1=O)CCC2 | -24.4%
O=c1[nH]c2ccc(S(=O)(=O)N3CCCCC3)cc2[nH]c1=O | 19.9%
CCOc1ccc(S(=O)(=O)N2CCN(C(=O)c3ccccc3Cc3ccccc3)CC2)cc1 | 9.23%
CCOc1cc(C(=O)O)cc(Cl)c1OCC#N | 7.96%
CC(Oc1cc2oc(=O)c3c(c2cc1Cl)CCC3)C(=O)NCCCN1CCOCC1 (centres unmarked) | 13.3%
CCOc1ccc(C(=O)Nc2cnn(Cc3ccc(Cl)c(Cl)c3)c2)cc1 | 6.28%

Source: PMC4336329 (PLoS ONE, 2015)
